Measurements from patent publication US20250346864A1, “MODULATION OF SATELLITE CELL POLARITY AND ASYMMETRIC CELL DIVISION” (Ottawa Hospital Research Institute, priority 2022, published 2025).

What was measured:
[1] = biological target: adapter protein-2 associated kinase 1 (AAK1) (Homo sapiens, UniProt Q2M2I8); conditions: enzyme assay where stated; cited from earlier work
[2] = biological target: BMP-2-inducible protein kinase (BIKE) (Homo sapiens, UniProt Q9NSY1); conditions: cited from earlier work
Chain of BMP-2-inducible protein kinase (BIKE) (Q9NSY1 whole entry): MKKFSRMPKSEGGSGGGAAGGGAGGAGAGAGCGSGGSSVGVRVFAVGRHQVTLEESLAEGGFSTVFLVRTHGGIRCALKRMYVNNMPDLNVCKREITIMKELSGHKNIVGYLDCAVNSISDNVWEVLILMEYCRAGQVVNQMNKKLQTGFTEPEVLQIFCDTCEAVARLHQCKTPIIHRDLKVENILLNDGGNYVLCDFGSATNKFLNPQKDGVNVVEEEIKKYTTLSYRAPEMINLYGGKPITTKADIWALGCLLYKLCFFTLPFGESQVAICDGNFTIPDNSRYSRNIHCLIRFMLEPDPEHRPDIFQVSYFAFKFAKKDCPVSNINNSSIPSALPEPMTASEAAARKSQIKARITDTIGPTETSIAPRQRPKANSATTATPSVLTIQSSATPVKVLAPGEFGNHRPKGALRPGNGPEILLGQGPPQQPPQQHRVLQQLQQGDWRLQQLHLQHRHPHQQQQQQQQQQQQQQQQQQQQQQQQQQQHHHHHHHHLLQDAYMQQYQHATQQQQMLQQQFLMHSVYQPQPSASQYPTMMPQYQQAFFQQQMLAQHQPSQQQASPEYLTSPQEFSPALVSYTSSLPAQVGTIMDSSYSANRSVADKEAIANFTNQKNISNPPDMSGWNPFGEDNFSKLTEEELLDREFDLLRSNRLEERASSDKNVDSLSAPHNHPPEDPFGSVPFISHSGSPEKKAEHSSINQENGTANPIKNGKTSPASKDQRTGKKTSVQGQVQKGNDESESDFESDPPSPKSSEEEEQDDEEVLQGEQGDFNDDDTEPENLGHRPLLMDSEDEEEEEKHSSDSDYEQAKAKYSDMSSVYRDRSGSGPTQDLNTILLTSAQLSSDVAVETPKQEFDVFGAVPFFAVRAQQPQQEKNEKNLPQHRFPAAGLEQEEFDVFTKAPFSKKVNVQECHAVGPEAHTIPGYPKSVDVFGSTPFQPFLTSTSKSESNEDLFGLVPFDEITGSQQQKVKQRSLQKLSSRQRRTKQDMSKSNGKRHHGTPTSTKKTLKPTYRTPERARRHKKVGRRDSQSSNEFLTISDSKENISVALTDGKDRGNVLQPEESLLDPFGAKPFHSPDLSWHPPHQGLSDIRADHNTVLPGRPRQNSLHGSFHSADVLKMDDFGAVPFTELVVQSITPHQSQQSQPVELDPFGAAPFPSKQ

[3] = system: dystrophin-deficient mdx satellite cells; assay: Satellite cell divisions on cultured myofibers from Mdx mice; format: cell-based; conditions: concentration not given
[4] = system: C57BL/10ScSn-Dmd^mdx/J (mdx) mouse model of Duchenne muscular dystrophy; assay: In vivo AAK1 inhibition after cardiotoxin injury of TA muscles in mdx mice; conditions: 1 mg/kg IP day 0 and 3, CTX-injured TA
[5] = system: C57BL/10ScSn-Dmd^mdx/J (mdx) mouse model of Duchenne muscular dystrophy; assay: In vivo dosage regimens in mdx mice, TA histology and single cell assay; conditions: for average Feret diameter / distribution of minimum myofiber Feret / total TA muscle fiber area: vs vehicle
[6] = system: C57BL/10ScSn-Dmd^mdx/J (mdx) mouse model of Duchenne muscular dystrophy; assay: In vivo dose amounts in mdx mice, TA muscle strength
[7] = system: AP2M1 Thr156 phosphorylation; conditions: dose-dependent; cited from earlier work
[8] = dosage regimen 1 (2×): 1 mg/kg IP day 0 and 3
[9] = dosage regimen 2 (4×): 1 mg/kg IP day 0, 3, 7, 10
[10] = dosage regimen 3 (7×): 1 mg/kg IP day 0, 3, 5, 7, 10, 12, 14, 17
[11] = 1 mg/kg vs 0.1 and 0.3 mg/kg, dose-dependent effect
[12] = 0.1, 0.3 or 1 mg/kg IP days 0, 3, 7, 10, right TA tested day 17

Chain of adapter protein-2 associated kinase 1 (AAK1) (Q2M2I8 whole entry): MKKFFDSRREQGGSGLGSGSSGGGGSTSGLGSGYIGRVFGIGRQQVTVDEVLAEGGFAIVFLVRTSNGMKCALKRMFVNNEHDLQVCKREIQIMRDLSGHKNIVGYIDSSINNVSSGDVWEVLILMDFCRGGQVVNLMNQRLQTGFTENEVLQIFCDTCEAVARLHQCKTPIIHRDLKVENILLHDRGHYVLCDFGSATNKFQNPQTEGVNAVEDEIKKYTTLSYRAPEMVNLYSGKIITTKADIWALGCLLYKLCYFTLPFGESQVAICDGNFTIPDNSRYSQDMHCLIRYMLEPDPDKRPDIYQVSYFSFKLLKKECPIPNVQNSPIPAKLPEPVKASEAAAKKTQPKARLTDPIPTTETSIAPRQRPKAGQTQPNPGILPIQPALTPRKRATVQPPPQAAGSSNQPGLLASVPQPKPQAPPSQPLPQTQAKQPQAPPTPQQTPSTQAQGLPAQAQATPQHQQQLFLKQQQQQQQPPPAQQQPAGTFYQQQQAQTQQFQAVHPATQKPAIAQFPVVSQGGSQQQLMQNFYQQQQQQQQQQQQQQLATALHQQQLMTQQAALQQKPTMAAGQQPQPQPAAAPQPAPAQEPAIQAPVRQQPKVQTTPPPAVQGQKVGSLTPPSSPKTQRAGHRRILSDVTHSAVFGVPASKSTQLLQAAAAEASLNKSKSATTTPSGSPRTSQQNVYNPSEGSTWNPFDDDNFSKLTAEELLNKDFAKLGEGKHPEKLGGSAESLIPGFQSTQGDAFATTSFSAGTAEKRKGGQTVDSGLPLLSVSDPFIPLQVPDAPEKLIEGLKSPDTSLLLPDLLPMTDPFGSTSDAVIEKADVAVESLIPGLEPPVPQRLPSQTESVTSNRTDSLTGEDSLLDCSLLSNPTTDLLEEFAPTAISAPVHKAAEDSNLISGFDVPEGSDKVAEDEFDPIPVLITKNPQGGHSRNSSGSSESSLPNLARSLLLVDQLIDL

## CC(=O)Nc1cc2c(cn1)COc1cc(OC[C@@](C)(N)CC(C)C)ccc1-2 [BMT-124110]
[1]
  IC50: 0.9 nM

## Cc1nccc2c1c(=O)n(C)c1cc(OC[C@@H](N)CC(C)C)c(C#N)cc21 [BMT-090605]
[1]
  IC50: 0.6 nM

## CN(CCNc1ccc2ncc(-c3ccc(C(N)=O)cc3)n2n1)C(=O)OC(C)(C)C [LP-922761]
[2]
  IC50: 24 nM

## CC(C)C[C@](C)(N)COc1ccc(-c2ccnc(C(F)F)c2)nc1C(F)F [LX9211, (S)-1-((2′,6-bis(difluoromethyl)-[2,4′-bipyridin]-5-yl)oxy)-2,4-dimethylpentan-2-amine]
[3]
  asymmetric division of mdx satellite stem cells: stimulated
[4]; day 10, histology, vs vehicle
  distribution of minimum myofiber Feret: significant shift
[4]; day 10, single cell assay, vs DMSO
  increase in the percentage of MyoG+ cells: ~100%
[4]; day 10, vs DMSO
  % of Pax7-positive (Pax7+) cells: not
[5]; dosage regimen 1 (2×)
  average Feret diameter: Neither dosage regimen 1 or 3 significantly increased
  distribution of minimum myofiber Feret: nor did they significantly shift
  total TA muscle fiber area: Neither dosage regimen 1 or 3 significantly increased
[5]; [8]
  muscle mass (TA area): Neither dosage regimen 1 (“2×”) or dosage regimen 3 (“7×”) significantly increased
  number of MyoG+ cells: increased
  number of Pax7+ cells: increased
  percentage of MyoG+ cells: Neither dosage regimen 1 (“2×”) or dosage regimen 3 (“7×”) significantly increased
[5]; dosage regimen 2 (4×)
  average Feret diameter: increased
  distribution of minimum myofiber Feret: significant shift
  total TA muscle fiber area: increased
[5]; [9]
  Pax7+ cells: not
  increase in the number of MyoG+ cells: ~100%
  increase in the percentage of MyoG+ cells: ~100%
  muscle mass (TA area): increased
[5]; dosage regimen 3 (7×)
  average Feret diameter: Neither dosage regimen 1 or 3 significantly increased
  distribution of minimum myofiber Feret: nor did they significantly shift
  total TA muscle fiber area: Neither dosage regimen 1 or 3 significantly increased
[5]; [10]
  muscle mass (TA area): Neither dosage regimen 1 (“2×”) or dosage regimen 3 (“7×”) significantly increased
  percentage of MyoG+ cells: Neither dosage regimen 1 (“2×”) or dosage regimen 3 (“7×”) significantly increased
[6]; [11]
  Max Tetanic Force, 1 mg/kg compared with lower doses: larger increase
  Specific Force, 1 mg/kg compared with lower doses: larger increase
  Twitch Force, 1 mg/kg compared with lower doses: larger increase
[6]; [12]
  Max Tetanic Force (nM) normalized to controls: significant increase
  Specific Force (mN/mm2) normalized to controls: significant increase
  Twitch Force (mN) normalized to controls: significant increase

## CCN(CC)S(=O)(=O)Nc1cccc(-c2ccc3c(NC(=O)C4CC4)n[nH]c3c2)c1 [SGC-AAK1-1, N-(6-(3-(N,N-Diethylsulfamoylamino)phenyl)-1H-indazol-3-yl) cyclopropanecarboxamide]
[7]
  ECmax, downregulation of cellular AP2M1 Thr156 phosphorylation level: ~12.5 µM
